# Laboratory results taken from PubChem BioAssay (NCATS).
# Values joined by “and” are separate entries in the source; they are usually repeats but may differ in a detail not shown here. Equal values may be shown once. The shares of active, inactive and inconclusive entries below differ from those in the screen. For some of these results: Potencies beside an inconclusive call are fits to weak or partial responses and may not hold up. For some of these results: A note “side channel” means that the fit belongs to a control or component signal, not to the main read-out. Active and inactive are the calls of the source. Unless noted, calls come from the whole dose curve; as a rule, active = well fitted curve in the direction sought with a large enough effect; inconclusive = small, poorly fitted or top-dose-only effect, or another doubt; inactive = no such curve, though single readings can be large; an effect the other way counts as inactive or inconclusive.
# Legend:
# [1] = qHTS for Inhibitors of Plasmodium falciparum (HB3) proliferation (AID 504318); note: nearly all actives have a fitted effect of over 60% in size; note: potency is the fitted concentration of half-maximal effect;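 for activity change, negative = inhibition: 0% = DMSO vehicle and -100% = artemisinin control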; conditions: P. falciparum HB3 in erythrocytes, SYBR Green DNA, 72 h; activity change, negative = inhibition: at 7.21 µM (top of the series)
# How it was run: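 Erythrocytes infected with P. falciparum line (0.3% parasitemia, 2.5% hematocrit final) incubated with compounds 72 h at 37 °C, 5% CO2; SYBR Green lysis buffer added, fluorescence read next day. Normalized to 0.29 uM artemisinin and DMSO.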
# [2] = target: Endonuclease 4 (Escherichia coli (strain K12)) (UniProt P0A6C1); experiment: Counterscreen for APE1 Inhibitors: qHTS Validation Assay for Inhibitors of Endonuclease IV (AID 1708); note: potency is the fitted concentration of half-maximal effect
# How it was run: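 qHTS concentration-response format; LOPAC1280 tested under APE1-screen conditions. 2 nM enzyme, 15 min compound preincubation at RT, then 50 nM TAMRA/BHQ-2 abasic substrate; kinetic fluorescence read, three reads at 60 s intervals.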
# [3] = target: Thioredoxin reductase 1, cytoplasmic (Rattus norvegicus) (UniProt O89049); experiment: qHTS Assay for Inhibitors of Mammalian Selenoprotein Thioredoxin Reductase 1 (TrxR1) (AID 488773); conditions: Potency: inhibition;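 note: drop in NADPH fluorescence over an 8 min run after selenite addition; % is set by controls: 0 for no effect and ±100 for the full control effect; nearly all actives have a fitted effect of over 40% in size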
# How it was run: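 Steps: enzyme (90 nM) plus NADPH (400 uM final), 5 min at ~22 deg C; compound added, 15 min; selenite (400 uM final) added; fluorescence followed for 8 min. Concentration-response curves derived from the normalized delta values.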
# [4] = target: Glutaminase kidney isoform, mitochondrial (Homo sapiens) (UniProt O94925); experiment: qHTS for Inhibitors of Glutaminase (GLS): LOPAC Validation (AID 624146); note: nearly all actives have a fitted effect of over 60% in size; note: potency is the fitted concentration of half-maximal effect;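 for activity change, negative = inhibition: glutamate product detected by oxidase and peroxidase coupled Amplex red fluorescence gain; % is set by controls: 0 for no effect and ±100 for the full control effect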
# Chain of UniProt O94925 (O94925 whole entry, looked up, canonical isoform): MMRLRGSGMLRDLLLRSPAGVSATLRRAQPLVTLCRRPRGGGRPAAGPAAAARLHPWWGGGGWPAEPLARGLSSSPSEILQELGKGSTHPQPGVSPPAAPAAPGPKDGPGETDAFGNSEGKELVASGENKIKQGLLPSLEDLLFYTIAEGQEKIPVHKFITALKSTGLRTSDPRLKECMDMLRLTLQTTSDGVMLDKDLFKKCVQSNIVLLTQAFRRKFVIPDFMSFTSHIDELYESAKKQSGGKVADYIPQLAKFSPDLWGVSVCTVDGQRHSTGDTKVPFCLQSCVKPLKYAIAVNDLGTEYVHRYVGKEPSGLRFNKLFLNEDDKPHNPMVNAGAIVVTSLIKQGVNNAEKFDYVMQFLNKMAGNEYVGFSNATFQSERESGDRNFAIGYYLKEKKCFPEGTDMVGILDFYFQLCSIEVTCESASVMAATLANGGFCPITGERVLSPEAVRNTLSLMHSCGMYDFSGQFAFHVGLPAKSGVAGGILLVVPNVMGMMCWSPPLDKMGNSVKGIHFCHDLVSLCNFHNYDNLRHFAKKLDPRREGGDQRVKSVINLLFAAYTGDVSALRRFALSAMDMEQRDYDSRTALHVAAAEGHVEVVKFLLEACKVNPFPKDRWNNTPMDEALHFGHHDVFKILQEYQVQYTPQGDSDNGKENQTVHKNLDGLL
# How it was run: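 Human kidney-isoform GLS in 45 mM KH2PO4 pH 8.2, 0.02% Tween-20, with compound, started with 1mM L-Glutamine (added stock). Glutamate oxidase/HRP/Amplex red coupled fluorescence read at start and after 30 min at RT.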
# [5] = NS1 protein of Zika virus - qHTS assay to identify small molecule inhibitors in human HEK 293 cells (AID 1347053); note: nearly all actives have a fitted effect of over 55% in size; note: potency is the fitted concentration of half-maximal effect;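 for activity change, negative = inhibition: plate controls were infected untreated cells for no effect and uninfected cells for full effect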
# How it was run: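 HEK 293 cells, seeded 20 h at 37 C, were pretreated with compound 1 h, then infected with ZIKV MR766 (MOI = 0.5) for 24 h. NS1 was read by TR-FRET with two anti-NS1 antibodies, normalized to uninfected and infected wells.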
# [6] = target: Mitogen-activated protein kinase 10 (Mus musculus) (UniProt Q61831); experiment: JNK3 AlphaScreen Assay (AID 530; active = well fitted curve in either direction with a large enough effect, not every such curve was filed as active; inconclusive = small, poorly fitted or top-dose-only effect, or another doubt;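 note: kinase came from lysate of stimulated human HepG2 cells; signal reports phosphorylation of biotinylated GST-cJun 1-79 at Ser73 with 10 µM ATP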; note: potency is the fitted concentration of half-maximal effect); conditions: JNK3 lysate, c-Jun phosphorylation; activity change, negative = inhibition: at 57.1 µM (top of the series)
# How it was run: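 Compound titrations were preincubated 15 minutes at room temperature with substrate, antibody and pre-activated JNK3-containing HepG2 lysate. Reactions were started with 10 uM ATP and stopped with EDTA-containing bead buffer for AlphaScreen detection.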
# [7] = target: Muscarinic acetylcholine receptor M1 (Rattus norvegicus) (UniProt P08482); experiment: qHTS Assay for Antagonists of Acetylcholine Muscarinic M1 Receptor: Measurement of IP-One Response (AID 944); note: nearly all actives have a fitted effect of over 75% in size; note: potency is the fitted concentration of half-maximal effect
# Chain of UniProt P08482 (P08482 whole entry, looked up): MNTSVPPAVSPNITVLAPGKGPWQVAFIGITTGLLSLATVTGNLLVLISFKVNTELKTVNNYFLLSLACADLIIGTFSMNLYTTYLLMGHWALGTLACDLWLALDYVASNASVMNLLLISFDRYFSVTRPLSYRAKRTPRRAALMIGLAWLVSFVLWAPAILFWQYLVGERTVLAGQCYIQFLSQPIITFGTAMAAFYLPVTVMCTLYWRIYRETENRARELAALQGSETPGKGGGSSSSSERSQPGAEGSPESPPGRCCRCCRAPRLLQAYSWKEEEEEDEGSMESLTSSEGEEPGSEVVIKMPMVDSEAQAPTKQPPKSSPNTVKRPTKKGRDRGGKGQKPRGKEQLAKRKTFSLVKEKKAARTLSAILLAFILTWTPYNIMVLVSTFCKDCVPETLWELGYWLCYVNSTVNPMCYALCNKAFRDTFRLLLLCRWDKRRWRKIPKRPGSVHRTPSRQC
# [8] = qHTS for differential inhibitors of proliferation of Plasmodium falciparum line D10 (AID 1877);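 note: parasites grown with compound for 72 h before DNA staining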; note: potency is the fitted concentration of half-maximal effect;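 for activity change, negative = inhibition: plate controls were vehicle wells for no effect and reference inhibitor wells for full effect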
# [9] = Quantitative high throughput screen for delayed death inhibitors of the malarial parasite plastid, 96 hour incubation (AID 488745); note: nearly all actives have a fitted effect of over 70% in size; note: potency is the fitted concentration of half-maximal effect; for activity change, negative = inhibition: % is set by controls: 0 for no effect and ±100 for the full control effect
# How it was run: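 Luciferase-expressing P. falciparum in erythrocytes (2% hematocrit, 0.1% parasitemia) incubated with compound for 96 h at 37 C, 5% CO2, in RPMI 1640 with 0.5% Albumax. Growth inhibition read as decreased luminescence.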
# [10] = target: Ubiquitin carboxyl-terminal hydrolase 1 (Homo sapiens) (UniProt O94782); experiment: Inhibitors of USP1/UAF1: Pilot qHTS (AID 504865);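 note: rhodamine fluorescence freed from ubiquitin-rhodamine substrate followed over time; potency is the fitted concentration of half-maximal effect; nearly all actives have a fitted effect of over 35% in size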
# Chain of UniProt O94782 (O94782 whole entry, looked up): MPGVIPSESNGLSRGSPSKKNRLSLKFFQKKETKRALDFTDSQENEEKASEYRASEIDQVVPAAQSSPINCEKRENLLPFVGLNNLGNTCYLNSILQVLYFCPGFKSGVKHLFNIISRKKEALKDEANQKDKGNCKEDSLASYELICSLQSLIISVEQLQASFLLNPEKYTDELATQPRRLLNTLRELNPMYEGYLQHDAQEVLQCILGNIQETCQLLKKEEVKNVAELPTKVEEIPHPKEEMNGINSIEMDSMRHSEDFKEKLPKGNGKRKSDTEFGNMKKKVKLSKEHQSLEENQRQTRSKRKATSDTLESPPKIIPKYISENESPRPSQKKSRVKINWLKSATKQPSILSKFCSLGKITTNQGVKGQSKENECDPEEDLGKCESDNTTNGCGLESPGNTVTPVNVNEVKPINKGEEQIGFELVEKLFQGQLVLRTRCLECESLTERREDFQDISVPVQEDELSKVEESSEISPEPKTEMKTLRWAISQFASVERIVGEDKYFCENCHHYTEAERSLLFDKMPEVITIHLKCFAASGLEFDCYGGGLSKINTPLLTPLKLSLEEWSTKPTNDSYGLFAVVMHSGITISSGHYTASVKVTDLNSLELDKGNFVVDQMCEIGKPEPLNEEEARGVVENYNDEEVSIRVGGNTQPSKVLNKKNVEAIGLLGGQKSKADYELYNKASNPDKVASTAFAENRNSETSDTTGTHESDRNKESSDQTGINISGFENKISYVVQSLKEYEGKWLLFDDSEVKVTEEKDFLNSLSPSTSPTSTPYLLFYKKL
# How it was run: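 Enzyme-free wells gave the negative control, while test wells held 1nM USP1/UAF1 preincubated with compound for 15 min at room temperature. Ub-Rho at 150nM final started the reaction, and fluorescence at 480/540 nm was recorded kinetically.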
# [11] = qHTS for Inhibitors of ATXN expression: Validation of Cytotoxic Assay (AID 588349); note: potency is the fitted concentration of half-maximal effect
# How it was run: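 HEK293 cells treated with titrated compound for 72 hr at 37 degrees C; viability read as intracellular ATP by CellTiter Glo luminescence.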
# [12] = qHTS for Inhibitors of ATXN expression: Validation (AID 588378); note: nearly all actives have a fitted effect of over 75% in size; note: potency is the fitted concentration of half-maximal effect; for activity change, negative = inhibition: % is set by controls: 0 for no effect and ±100 for the full control effect
# How it was run: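 After a 2 h attachment and 24 h compound incubation, HEK293-ATXN2-FFLuc wells are read for fluorescence at 405 nm excitation/525 nm emission as a viability measure, then for Bright-Glo luminescence reflecting ATXN2 expression.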
# [13] = target: Tyrosine-protein phosphatase non-receptor type substrate 1 (Homo sapiens) + Leukocyte surface antigen CD47 (Homo sapiens) (UniProt P78324+Q08722); experiment: CD47-SIRPalpha protein protein interaction - LANCE assay qHTS validation (AID 1347057; active = well fitted curve in the direction sought with a large enough effect in the signal ratio, with a control signal flat, not every such curve was filed as active; inconclusive = small, poorly fitted or top-dose-only effect, or effect the other way, or a change in a side signal; inactive = no such curve, though single readings can be large or run the other way; the % refers to the signal ratio; note: potency is the fitted concentration of half-maximal effect; for activity change, negative = inhibition: 0% is about no effect)
# Chain of UniProt P78324 (P78324 whole entry, looked up): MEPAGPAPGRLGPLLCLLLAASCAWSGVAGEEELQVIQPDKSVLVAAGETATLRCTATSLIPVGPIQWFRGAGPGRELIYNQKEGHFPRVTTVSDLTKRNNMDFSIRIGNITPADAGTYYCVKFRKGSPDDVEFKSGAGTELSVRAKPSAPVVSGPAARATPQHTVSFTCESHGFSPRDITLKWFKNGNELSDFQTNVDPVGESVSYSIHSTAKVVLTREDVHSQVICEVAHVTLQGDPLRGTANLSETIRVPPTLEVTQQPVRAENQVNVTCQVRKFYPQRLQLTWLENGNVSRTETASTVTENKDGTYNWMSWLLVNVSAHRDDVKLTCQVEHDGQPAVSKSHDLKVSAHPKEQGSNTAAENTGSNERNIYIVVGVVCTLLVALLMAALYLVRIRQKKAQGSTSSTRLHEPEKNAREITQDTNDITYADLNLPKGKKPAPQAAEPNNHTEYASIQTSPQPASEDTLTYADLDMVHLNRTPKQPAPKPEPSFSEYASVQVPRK
# Chain of UniProt P78324 (Q08722 whole entry, looked up): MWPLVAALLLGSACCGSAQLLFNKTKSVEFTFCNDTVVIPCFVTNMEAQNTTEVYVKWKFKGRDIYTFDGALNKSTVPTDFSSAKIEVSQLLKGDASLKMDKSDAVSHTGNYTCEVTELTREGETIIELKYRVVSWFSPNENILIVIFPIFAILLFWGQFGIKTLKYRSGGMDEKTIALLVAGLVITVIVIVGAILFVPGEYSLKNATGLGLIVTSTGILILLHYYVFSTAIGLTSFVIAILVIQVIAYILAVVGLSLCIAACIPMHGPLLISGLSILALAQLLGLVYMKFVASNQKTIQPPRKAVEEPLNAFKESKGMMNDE
# How it was run: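 First, His-tagged CD47 and Eu-labelled anti-His antibody met the compound for 30 min; next, site-specifically biotinylated SIRPalpha was added for 30 min; finally streptavidin-APC was added before reading the TR-FRET ratio.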
# [14] = target: Calcium and integrin-binding protein 1 (Homo sapiens) (UniProt Q99828); experiment: Validation qHTS for Identification of Calcium Integrin Binding protein 1 (CIB1) Competitor (AID 1508618); note: potency is the fitted concentration of half-maximal effect
# Chain of UniProt Q99828 (Q99828 whole entry, looked up): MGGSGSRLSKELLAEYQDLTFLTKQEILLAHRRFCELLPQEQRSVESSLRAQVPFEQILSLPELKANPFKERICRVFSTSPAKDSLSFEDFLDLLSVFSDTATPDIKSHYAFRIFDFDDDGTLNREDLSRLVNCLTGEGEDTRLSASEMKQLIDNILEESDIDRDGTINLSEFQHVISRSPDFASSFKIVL
# How it was run: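 CIB1-GST (1 uM final) in 5 mM HEPES pH 7.4, 125 mM NaCl, 5 mM CaCl2, 0.01% Tween20 was preincubated 15 min at room temperature with compound (up to 114 uM), then FITC-alphaIIb peptide (100 nM) added for 15 min; fluorescence polarization read.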
# Papain (Carica papaya) = Papain (Carica papaya) (UniProt P00784); experiment: Primary qHTS assay for inhibitors of the protease papain (AID 1645873);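 note: papain turnover of Z-FR-AMC read as the AMC fluorescence gain over 10 min; potency is the fitted concentration of half-maximal effect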
# [15] = target: Ferritin light chain (Equus caballus) (UniProt P02791); experiment: qHTS Validation Assay for Identification of Novel General Anesthetics (AID 2323); note: potency is the fitted concentration of half-maximal effect
# Chain of UniProt P02791 (P02791 whole entry, looked up): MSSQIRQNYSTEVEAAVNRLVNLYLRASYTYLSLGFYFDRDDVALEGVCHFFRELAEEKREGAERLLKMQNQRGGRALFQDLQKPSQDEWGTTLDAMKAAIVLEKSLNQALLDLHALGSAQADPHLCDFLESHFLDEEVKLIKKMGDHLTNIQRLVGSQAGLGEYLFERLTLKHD
# How it was run: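 Normalized fluorescence response, scaled between free 1-AMA and 1-AMA/apoferritin complex, fitted to a four-parameter Hill equation for concentration-effect values. Binding mix: 10 uM horse-spleen apoferritin, 50% saturated 1-AMA in PBS; read 380/535 nm after 10 min.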
# [16] = Stat Signaling Pathway (AID 446; active = well fitted curve in either direction with a large enough effect, not every such curve was filed as active; inconclusive = small, poorly fitted or top-dose-only effect, or another doubt;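 note: ME-180 cervical cancer cells given 40 pM IL-6 alongside compound; SIE-controlled beta-lactamase reporter measured as 460/530 nm FRET emission ratio; top concentration of the series differs between compounds; % is set by controls: 0 for no effect and ±100 for the full control effect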); conditions: ME-180 SIE beta-lactamase reporter, IL-6 stimulated, 5 h; at 38 µM (top of the series)
# How it was run: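 ME-180 SIE-bla cells; overnight plating; cpd + IL-6 40 pM, 5 h, 37 C; LiveBLAzer 2.5 h RT; 460/530 nm emission ratio. Normalized to 300 pM IL-6 and 125 nM JAK inhibitor controls.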
# [17] = target: ATPase family AAA domain-containing protein 5 (Homo sapiens) (UniProt Q96QE3); experiment: Validation screen for small molecules that inhibit ELG1-dependent DNA repair in human embryonic kidney (HEK293T) cells expressing luciferase-tagged ELG1 (AID 493107); conditions: HEK293T ELG1-luciferase level, luminescence, 5-fluorouridine co-treatment, 16 h; activity change, negative = decrease: at 46.1 µM (top of the series); note: potency is the fitted concentration of half-maximal effect; nearly all actives have a fitted effect of over 70% in size
# Chain of UniProt Q96QE3 (Q96QE3 whole entry, looked up, the tested form may be a part): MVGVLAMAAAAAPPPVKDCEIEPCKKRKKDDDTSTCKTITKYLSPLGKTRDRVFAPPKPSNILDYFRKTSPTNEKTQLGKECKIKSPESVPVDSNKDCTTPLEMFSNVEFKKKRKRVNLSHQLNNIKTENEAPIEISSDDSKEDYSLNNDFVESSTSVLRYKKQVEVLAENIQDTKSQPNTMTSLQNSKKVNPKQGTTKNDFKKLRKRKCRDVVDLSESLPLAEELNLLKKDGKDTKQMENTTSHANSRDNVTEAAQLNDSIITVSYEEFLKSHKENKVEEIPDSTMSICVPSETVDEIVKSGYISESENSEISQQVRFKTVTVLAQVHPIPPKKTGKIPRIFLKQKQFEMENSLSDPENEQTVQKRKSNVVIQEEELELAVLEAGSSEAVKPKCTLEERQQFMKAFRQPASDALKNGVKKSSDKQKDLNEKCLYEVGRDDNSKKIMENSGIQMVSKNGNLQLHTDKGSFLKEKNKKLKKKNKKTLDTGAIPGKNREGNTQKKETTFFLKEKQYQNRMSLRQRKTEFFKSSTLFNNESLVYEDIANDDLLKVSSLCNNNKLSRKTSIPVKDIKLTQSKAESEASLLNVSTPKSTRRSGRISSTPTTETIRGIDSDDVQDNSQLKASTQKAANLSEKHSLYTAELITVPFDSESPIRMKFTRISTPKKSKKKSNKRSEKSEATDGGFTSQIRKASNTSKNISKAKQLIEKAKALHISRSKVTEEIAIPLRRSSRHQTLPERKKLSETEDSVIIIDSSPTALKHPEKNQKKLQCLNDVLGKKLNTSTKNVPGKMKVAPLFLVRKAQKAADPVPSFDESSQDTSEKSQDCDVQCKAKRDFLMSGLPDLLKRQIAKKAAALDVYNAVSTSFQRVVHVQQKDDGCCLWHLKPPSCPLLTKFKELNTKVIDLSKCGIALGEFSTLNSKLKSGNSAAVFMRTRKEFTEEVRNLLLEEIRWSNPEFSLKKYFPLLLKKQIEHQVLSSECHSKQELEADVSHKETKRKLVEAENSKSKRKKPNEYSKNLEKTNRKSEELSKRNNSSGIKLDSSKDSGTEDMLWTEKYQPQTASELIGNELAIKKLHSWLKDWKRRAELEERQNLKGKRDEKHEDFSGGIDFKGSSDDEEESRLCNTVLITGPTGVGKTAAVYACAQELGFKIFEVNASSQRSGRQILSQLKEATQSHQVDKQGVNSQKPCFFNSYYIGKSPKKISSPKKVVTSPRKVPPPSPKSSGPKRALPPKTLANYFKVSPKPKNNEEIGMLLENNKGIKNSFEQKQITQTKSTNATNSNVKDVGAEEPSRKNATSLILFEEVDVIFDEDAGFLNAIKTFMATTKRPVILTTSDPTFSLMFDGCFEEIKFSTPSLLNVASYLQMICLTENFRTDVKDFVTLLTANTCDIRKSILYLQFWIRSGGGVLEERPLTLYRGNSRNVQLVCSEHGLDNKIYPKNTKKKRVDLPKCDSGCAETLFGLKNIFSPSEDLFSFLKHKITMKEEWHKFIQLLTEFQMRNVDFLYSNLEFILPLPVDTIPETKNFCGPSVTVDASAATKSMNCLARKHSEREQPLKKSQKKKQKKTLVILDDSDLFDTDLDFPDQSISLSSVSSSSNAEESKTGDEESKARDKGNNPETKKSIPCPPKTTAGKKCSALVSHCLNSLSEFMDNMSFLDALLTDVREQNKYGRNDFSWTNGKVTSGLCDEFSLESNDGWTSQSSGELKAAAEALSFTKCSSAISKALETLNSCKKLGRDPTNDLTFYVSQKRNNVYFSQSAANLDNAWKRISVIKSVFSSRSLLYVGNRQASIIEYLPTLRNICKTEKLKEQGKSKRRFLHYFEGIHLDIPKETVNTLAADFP
# How it was run: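 HEK293T cells expressing luciferase-tagged ELG1, 2,000 per well, treated with 5-fluorouridine plus compound for 16 h at 37 C. ONE-Glo luminescence after 30 min at room temperature reports ELG1 reporter level.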
# [18] = target: Phospholipid hydroperoxide glutathione peroxidase GPX4 (Homo sapiens) (UniProt P36969); experiment: Primary qHTS Assay for Inhibitors of Recombinant Selenoprotein Glutathione Peroxidase 4 (GPX4) (AID 1845192); conditions: activity change, negative = inhibition: at 50 µM (top of the series) unless noted; note: potency is the fitted concentration of half-maximal effect; nearly all actives have a fitted effect of over 65% in size
# How it was run: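 NADPH consumption, followed by fluorescence at 340/450 nm between 0 and 15 min, reports GPX4 activity via coupled glutathione reductase (100 nM). Enzyme 200 nM was pre-exposed to compound 30 min; 0.5 mM cumene hydroperoxide and 1 mM GSH served as substrates.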
# [19] = qHTS Assay for Identification of Small Molecule Agonists for Thrombopoietin (TPO) Signaling Pathway (AID 917); note: potency is the fitted concentration of half-maximal effect
# How it was run: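 IL-3-dependent murine pro-B Ba/F3 cells, stably transfected with human TPO receptor and GpIIb-promoter luciferase, are incubated 24 hrs at 37 C with test compound and 26 pM TPO; luciferase signal is read after 10 min at room temperature.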
# Tags give direction and shape of the fitted curve.
structure (smiles),measurement,setting,value
COC(=O)N1CCc2cc(OC)c(OC)cc2C1Cc1ccc(OC)cc1 (stereo unspecified),Potency,[1],inactive
COC(=O)CCCC1=CC2=C(c3ccccc3)C(=O)C(C)(OC(=O)C3CCCC3)C(=O)C2=CN1CCc1ccccn1 (stereo unspecified),Potency,[1],"inconclusive: 4.26 µM [inhibitor, single point]"
Cc1ccccc1Nc1oc(-c2ccccc2)nc1-c1ccc(C(F)(F)F)cc1,Potency,[1],inactive
C=CCC(C)(NCc1ccccc1)C(=O)OCC (stereo unspecified),Potency,[1],inactive
CCCCn1c(C)cc2c(c1=O)[C@H]1O[C@](c3ccsc3)(Cc3ccccc31)O2,Potency,[1],"inconclusive: 0.953 µM [inhibitor, single point]"
C=CCN1C(=O)CC[C@@]23C1=NC(C(=O)OC)=C(C(=O)OC)[C@@H]2N(CC=C)c1ccccc13,Potency,[1],inactive
C=CCOC(=O)N[C@H](C(C(=O)OC)=C(C)NCc1ccccc1)c1cccc(C(F)(F)F)c1,Potency,[1],"inconclusive: 1.69 µM [inhibitor, partial curve]"
COC(=O)N[C@@H](c1cccc(C)c1)[C@]1(C(C)=O)CCCC1=O,Potency,[1],inactive
COc1cccc([C@@H]2Oc3ccc(Br)cc3[C@H](O)[C@@H]2O)c1,Potency,[1],inactive
C=CC[C@@H]1C=C[C@@H](OC(=O)OCC)[C@@H](COC(=O)OCC)O1,Potency,[1],inactive
O=C1C2C=CC=CC2=NC(=S)N1CCN1CCC(=C(c2ccc(F)cc2)c2ccc(F)cc2)CC1 (stereo unspecified),Potency,[2],"inconclusive: 56.2 µM [inhibitor, partial curve, poor fit]"
same,Potency,[3],inactive
same,Potency,[4],inactive
same,Potency,[5],inactive
COc1ccc2ccccc2c1-c1c(OC)ccc2ccccc12,Potency,[1],"inconclusive: 1.69 µM [inhibitor, single point]"
COC(=O)CC=C1c2ccc(OC)cc2[C@@H](OC)[C@@H]1C,Potency,[1],inactive
NS(=O)(=O)c1cccc2c1c([N+](=O)[O-])cc1nc(O)c(O)nc12,Potency,[6],"inconclusive: 1.58 µM [activator, partial curve, poor fit]"
same,Potency,[7],inactive
same,Potency,[8],inactive
same,Potency,[9],inactive
same,Potency,[10],"inconclusive: 56.2 µM [inhibitor, partial curve, poor fit] and inconclusive: 50.1 µM [inhibitor, partial curve, poor fit]"
same,Potency,[11],"inconclusive: 25.1 µM [cytotoxic, partial curve]"
same,Potency,[12],inactive
same,Potency,[13],"inconclusive: 13.1 µM [side channel, falling, single point]"
same,Potency,[14],"inconclusive: 5.01 µM [inhibitor, full curve]"
same,Potency,Papain (Carica papaya),"inconclusive: 15.8 µM [inhibitor, partial curve]"
O=C(C=Cc1cccc([N+](=O)[O-])c1)c1ccccc1,Potency,[1],inactive
c1ccc2c(c1)CC(N1CCN(c3cccc4c3OCCO4)CC1)C2,Potency,[7],"inconclusive: 7.94 µM [inhibitor, partial curve, poor fit]"
same,Potency,[2],"inconclusive: 5.62 µM [inhibitor, full curve]"
same,Potency,[15],"inconclusive: 35.5 µM [inhibitor, partial curve]"
same,Potency,[9],"inconclusive: 0.0026 µM [inhibitor, full curve, poor fit]"
same,Potency,[5],inactive
C=CCC1(c2ccccc2)Oc2ccccc2-c2nc3cc(Cl)c(Cl)cc3nc21 (stereo unspecified),Potency,[1],inactive
C=C(C)C(=O)c1ccc2c(c1)OCO2,Potency,[1],"inconclusive: 0.426 µM [inhibitor, single point]"
COc1cc(CC(=O)O)ccc1O,"activity, negative = inhibition",[16],inconclusive: 32.5% [activator]
same,Potency,[7],inactive
same,Potency,[2],inactive
same,Potency,[8],inactive
same,Potency,[17],"inconclusive: 0.0461 µM [inhibitor, partial curve, poor fit]"
same,Potency,[4],active: 2.82 µM
same,Potency,[5],"inconclusive: 5.62 µM [inhibitor, single point]"
same,Potency,[14],inactive
O=C(O)c1cc2cc(Cc3cccnc3)ccc2o1,Potency,[8],inactive
same,Potency,[13],inactive
C=C(C(C)=O)C(O)c1cccs1 (stereo unspecified),Potency,[1],"inconclusive: 1.51 µM [inhibitor, partial curve, poor fit]"
CCCn1c(=O)c2[nH]c(-c3ccc(S(=O)(=O)O)cc3)nc2n(CCC)c1=O,Potency,[6],inactive
same,Potency,[7],inactive
same,Potency,[10],"inconclusive: 100 µM [inhibitor, partial curve, poor fit]"
same,Potency,[12],inactive
same,Potency,[13],"inconclusive: 16.5 µM [side channel, falling, single point]"
same,Potency,Papain (Carica papaya),active: 25.1 µM
same,Potency,[18],active: 11.2 µM
CCCCOC(=O)NS(=O)(=O)c1sc(CC(C)C)cc1-c1ccc(Cn2c(CC)nc3c(C)cc(C)nc32)cc1,"activity, negative = inhibition",[16],inconclusive: -28.4% [inhibitor]
same,Potency,[19],"inconclusive: 5.01 µM [inhibitor, partial curve]"
same,Potency,[2],"inconclusive: 14.1 µM [inhibitor, partial curve]"
same,Potency,[8],active: 11.2 µM
same,Potency,[15],inactive
same,Potency,[17],active: 8.2 µM
same,Potency,[12],"inconclusive: 22.4 µM [inhibitor, partial curve, poor fit]"
same,Potency,[5],"inconclusive: 17.8 µM [inhibitor, single point]"
CN(C)C(=O)/N=N/C(=O)N(C)C,Potency,[5],inactive
